# Assay results published in the supplement of paper PMC4166925.
# ± gives the standard deviation of the averaged measurements. The full ranking holds about 33,000 sequences; the median of “E-score (dimensionless, -0.5 to 0.5)” is about -0.046, and the highest 2% start at about 0.36. The list shows a part of the results.
# System: T1, SpTbr T-box DNA-binding domain (GST fusion)
# T1 sequence: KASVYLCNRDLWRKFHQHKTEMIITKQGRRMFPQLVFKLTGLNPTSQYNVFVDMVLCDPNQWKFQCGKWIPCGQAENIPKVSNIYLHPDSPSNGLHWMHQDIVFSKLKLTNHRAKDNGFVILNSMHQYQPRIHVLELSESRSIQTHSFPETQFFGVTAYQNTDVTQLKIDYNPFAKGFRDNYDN
# Assay: PBM E-score of 8-mer (E-score (dimensionless, -0.5 to 0.5)); Tbr is Tbrain of the sea star Patiria miniata (Pm) or the sea urchin Strongylocentrotus purpuratus (Sp); higher = stronger binding preference; most listed sequences are background and not binding sites
# Conditions: the construct has about 5 more residues each side
# Protocol: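 Universal protein-binding microarray (Agilent AMADID 016060, 60-bp probes with a 35-bp variable region) incubated with 200 nM GST-fused Strongylocentrotus purpuratus Tbr T-box DNA-binding domain (residues 362-554) in PBS pH 7.5. Scored for every ungapped 8-mer (given with its reverse complement) as E-score (range -0.5 to 0.5; >0.45 counts as bound) and Z-score of median probe intensity. Two replicate arrays (datasets 1 and 2).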
# 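Further: protein at 200 nM in PBS on universal double-stranded arrays.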
row,Sequence,PBM E-score of 8-mer
1,CTATTATA,-0.0945 ± 0.038
2,AACAGGAA,-0.0975 ± 0.077
3,CATCTGTC,0.205 ± 0.021
4,CCAGTCCA,-0.0564 ± 0.073
5,CCCAAATC,-0.108 ± 0.11
6,CCAGGATC,-0.202 ± 0.097
7,ATCACTCG,-0.0664 ± 0.056
8,AGCTGCAG,0.104 ± 0.069
9,GTTTTAGA,-0.0895 ± 0.069
10,CCTAAAGG,0.0965 ± 0.024
11,AGCAGGTC,-0.0223 ± 0.011
12,AGACTGCA,-0.281 ± 0.021
13,CAAATCAC,0.172 ± 0.11
14,AGATGCCT,-0.0877 ± 0.03
15,AGTAAACG,-0.0624 ± 0.022
16,CGATGAAA,-0.0179 ± 0.035
17,CATATGGG,0.0581 ± 0.00073
18,GTCGCACA,0.3754 ± 0.0036
19,GCGCCAAA,0.286 ± 0.0062
20,CCTCGGAC,-0.228 ± 0.056
21,ACTCGACG,-0.036 ± 0.039
22,GCCTCCGC,-0.2 ± 0.11
23,CCGATTAA,-0.0536 ± 0.02
24,GCCGTCCC,-0.0174 ± 0.12
25,AATACTTC,-0.00484 ± 0.0061

row,Sequence,PBM E-score of 8-mer
1,CGTAACCC,-0.0666 ± 0.065
2,ACATCGTC,0.0988 ± 0.072
3,CATTGTCC,0.117 ± 0.047
4,CGGTGCAG,-0.078 ± 0.065
5,ACCTCTAC,0.0249 ± 0.026
6,GGACCCCA,-0.364 ± 0.02
7,GAGAGGTA,-0.0848 ± 0.015
8,CAACTTTC,0.112 ± 0.053
9,CTCTTTGC,-0.0452 ± 0.0034
10,AACAGTTC,0.172 ± 0.01
11,GTTAACAA,0.362 ± 0.018
12,AAGACGGA,-0.0813 ± 0.079
13,TATCTGAA,-0.0546 ± 0.013
14,CTCGACCC,-0.088 ± 0.02
15,AATTTCGA,-0.103 ± 0.11
16,ATAGGAGC,-0.181 ± 0.022
17,GAAGAGAA,-0.176 ± 0.0081
18,GTAGATTA,0.0105 ± 0.069
19,CTAGACAC,0.0881 ± 0.056
20,ATAGGCTA,-0.348 ± 0.041
21,CCTAATTC,-0.0257 ± 0.024
22,TGCAGGAA,-0.131 ± 0.051
23,AAAAACCG,-0.0997 ± 0.088
24,CACGTGCG,0.29 ± 0.085
25,CACCTCCA,0.3876 ± 0.00048

row,Sequence,PBM E-score of 8-mer
1,TAACAACA,0.278 ± 0.0062
2,CTTGTTGC,0.0822 ± 0.063
3,ATTAGCCG,0.0144 ± 0.016
4,ACCATAGC,0.0118 ± 0.017
5,ACACGTTA,0.344 ± 0.043
6,AAAAATTC,-0.141 ± 0.074
7,AAAAGCAC,0.0712 ± 0.058
8,ATAATCAG,-0.106 ± 0.04
9,CATGGGTA,-0.112 ± 0.056
10,CGTATGAC,0.0605 ± 0.0076
11,GTCTGGTA,-0.259 ± 0.096
12,GATGAAGC,0.00808 ± 0.033
13,GGCTCGAA,0.0162 ± 0.025
14,TCTACCCA,-0.151 ± 0.034
15,GAGGACCC,0.0477 ± 0.098
16,CACGTAAG,0.0351 ± 0.016
17,CCGCTGTC,0.0178 ± 0.022
18,AAGCCTGC,-0.1361 ± 0.001
19,ATTGACAA,0.298 ± 0.026
20,TATACCGA,-0.0854 ± 0.08
21,CCAGCAAA,-0.0864 ± 0.1
22,AAATTTGC,-0.00247 ± 0.095
23,AAATACTA,-0.0117 ± 0.0063
24,ACCTAGCG,0.337 ± 0.022
25,ATAGCTGG,-0.126 ± 0.061

row,Sequence,PBM E-score of 8-mer
1,AGGGGCGG,-0.00628 ± 0.07
2,CAATAGGG,-0.2 ± 0.046
3,CGAGTCCC,-0.124 ± 0.022
4,AAACCCAC,-0.0359 ± 0.093
5,ACATTGTC,0.236 ± 0.0082
6,ACGCAGAA,0.0756 ± 0.0091
7,ACAATTGA,0.0446 ± 0.019
8,GTTTAAGA,-0.164 ± 0.02
9,ACCGCAGC,0.0284 ± 0.013
10,AGTTTGAA,-0.0917 ± 0.046
11,CTCTCAGC,0.00924 ± 0.042
12,CCCGCTCG,0.0358 ± 0.11
13,AGATTAAC,0.0515 ± 0.0022
14,ATACCAGG,-0.1212 ± 0.00018
15,CCACGGGC,-0.227 ± 0.019
16,ATAGTACG,-0.111 ± 0.0061
17,CAATGATC,-0.0771 ± 0.0056
18,ATTGGACA,-0.108 ± 0.071
19,AAGCCAAG,-0.318 ± 0.074
20,CATCGATG,0.00634 ± 0.096
21,CACACGGA,0.201 ± 0.1
22,GGGCTACC,-0.221 ± 0.024
23,CTGCGACA,0.198 ± 0.036
24,CTCAAGAG,-0.0815 ± 0.017
25,AGCTCTAA,-0.276 ± 0.025

row,Sequence,PBM E-score of 8-mer
1,AGCATGCA,-0.145 ± 0.036
2,CACTAATA,0.068 ± 0.037
3,AGACACCT,0.4345 ± 0.003
4,ATATTGTA,-0.141 ± 0.039
5,CCTTACCG,-0.147 ± 0.02
6,ATGTAGAC,-0.194 ± 0.086
7,ATAGTTAG,0.012 ± 0.055
8,TAGGATGA,0.116 ± 0.049
9,GTATTGTA,-0.15 ± 0.039
10,CGGTGGAC,-0.175 ± 0.008
11,GACATGGA,-0.123 ± 0.018
12,CCTGGAGA,-0.0243 ± 0.11
13,GATGTGAC,0.273 ± 0.019
14,GATCGATC,-0.0756 ± 0.032
15,CACTCGAG,0.0747 ± 0.019
16,CCTCCTCC,-0.123 ± 0.004
17,CAACTACA,0.142 ± 0.06
18,CCCTGGGA,-0.167 ± 0.058
19,GCCAGCCA,-0.0864 ± 0.033
20,ATGTACCA,-0.258 ± 0.021
21,AGAAACCC,0.057 ± 0.023
22,TAATGTAA,-0.212 ± 0.047
23,AGCAGCCA,-0.101 ± 0.06
24,GACTTGAA,-0.181 ± 0.041
25,CCCTGAAG,-0.15 ± 0.043

row,Sequence,PBM E-score of 8-mer
1,GCTTACAA,-0.0307 ± 0.02
2,AGCCTCGA,-0.0749 ± 0.047
3,AAAGGGAT,-0.294 ± 0.0053
4,AGAAAGCC,-0.211 ± 0.049
5,ACCCGCGG,0.164 ± 0.025
6,CTCTCCTC,-0.139 ± 0.15
7,CGTTCTAC,-0.0107 ± 0.043
8,CAAGAAAA,-0.122 ± 0.065
9,TACCCGCA,-0.0672 ± 0.0097
10,CAATGGAG,-0.149 ± 0.047
11,AGTCACCG,-0.148 ± 0.03
12,CTCGGGCA,-0.181 ± 0.056
13,CTTAGTGA,0.0752 ± 0.0019
14,AGACCATA,-0.113 ± 0.002
15,CGAGCCGA,-0.0664 ± 0.0047
16,ATGACTCC,-0.172 ± 0.072
17,AAGGGCCG,-0.27 ± 0.034
18,GGTACCCA,0.0442 ± 0.038
19,AACATGCC,-0.172 ± 0.016
20,CCGCTACA,0.0727 ± 0.039
21,ATTACCAA,0.0168 ± 0.07
22,GCAAGTCC,0.0334 ± 0.02
23,ATCTGATC,-0.0836 ± 0.057
24,GGTGAATA,0.13 ± 0.016
25,AAACAGAC,-0.0932 ± 0.079

row,Sequence,PBM E-score of 8-mer
1,ACGGACTA,0.0103 ± 0.061
2,CCGTCGCC,0.247 ± 0.078
3,CGCTTAAG,0.04 ± 0.03
4,TAACCGAA,-0.212 ± 0.034
5,ATCAAAAT,-0.192 ± 0.028
6,GGTAGGAA,-0.287 ± 0.024
7,AACGTTCA,0.0606 ± 0.0016
8,AGGGCATC,-0.0335 ± 0.013
9,CATGCGTA,-0.199 ± 0.0048
10,CCAAGAAA,-0.0546 ± 0.07
11,TGCACGCA,-0.0378 ± 0.0076
12,AATACTAA,-0.0398 ± 0.024
13,GGAACCAC,-0.206 ± 0.0052
14,CATCCAGG,0.006 ± 0.007
15,ATATACTC,-0.215 ± 0.0023
16,CACTATAA,-0.0315 ± 0.037
17,AGCGTATA,-0.0764 ± 0.00086
18,AAGCCGGC,-0.125 ± 0.091
19,CCAAGGTC,-0.249 ± 0.031
20,GCGGTCTA,-0.21 ± 0.057
21,AGCAATTG,-0.109 ± 0.032
22,ACGCAGCT,0.086 ± 0.0018
